The source holds more than one record for some entries. The list is limited to them. There may be further records. The records of an entry are repeated measurements in other runs, samples, wells, individuals or studies. Marks such as (2×) count equal records among those shown. Marks such as [2022-09] give the month of the run.
Test system: 521955-158-R2-J5-PDC complex spheroid growth, % test/control
Assay: Anticancer human tumor 521955-158-R2-J5-PDC patient-derived pancreatic carcinoma cell line growth inhibition [Asc]
Details: for IC50: compound alone; for viability, T/C: stronger effect = lower value
Description: Multicellular complex tumor spheroid response to apoptosis pathway targeting inhibitors Alrizomadlin, Pelcitoclax, and Dasminapant in combination with a variety of drugs and investigational agents in selected tumor cell lines
The MDM2 inhibitor alrizomadlin, the Bcl-2/Bcl-xL inhibitor pelcitoclax, and the IAPs inhibitor dasminapant were evaluated both individually and in combination with standard of care and investigational anticancer small molecules within a complex spheroid model of solid tumors. . Complex spheroids include a stromal component modeled by human endothelial cells (HUVEC) and fibroblasts modeled by human mesenchymal stem cells (MSCs). The concentration ranges selected for each drug and investigational agent were based upon clinically achievable concentrations if the clinical Cmax of the agent was known.
Compounds. The drugs and investigational agents: alrizomadlin (APG-115; NSC831270), pelcitoclax (APG-1252; NSC835773), dasminapant (APG-1387;NSC834197), TAK-243 (NSC785004), copanlisib (NSC809693), olaparib (NSC753686), talazoparib (NSC767125), cobimetinib (NSC 768068), eltanexor (KPT-8602, NSC 794443), abemaciclib (NSC 768073), sotorasib (NSC818433), adagrasib (NSC 831453), MRTX-1133 (NSC 836407), Iadademestat (ORY1001, NSC 806812), and RMC-4630 (NSC839698), were obtained from the NCI Developmental Therapeutics Program Chemical Repository. The FDA-approved anticancer drug set is available from the Developmental Therapeutics Program at https://dtp.cancer.gov/organization/dscb/obtaining/available plates.htm. […] The stock solutions were prepared in dimethyl sulfoxide (DMSO, Sigma-Aldrich, St. Louis, MO, cat. D2650) at 800-fold the tested concentration and stored at -70 degrees C prior to their use. All drugs and investigational agents were tested over a range starting from a high concentration at or near the clinical Cmax and decreasing in half-log increments. If the clinical Cmax for an agent had not been determined, the highest concentration tested was 10 microM.
The patient-derived cancer (PDC) cell lines include five colon adenocarcinomas: 186277-243-T-J2-PDC, 616215-338-R-J1-PDC, 439559-082-T-J2-PDC, 463943-066-T-J2-PDC, and 519858-162-T-J1-PDC; three pancreatic carcinomas: 323965-272-R-J2-PDC, 521955-158-R6-J3-PDC, and 521955-158-R2-J5-PDC; two uterine sarcomas: 327498-152-R-J2-PDC and 993429-296-R-J1-PDC; two rhabdomyosarcomas: 755483-174-R-J1-PDC and 772245-204-R-J1-PDC; two soft tissue sarcomas: 126254-015-R-J1-PDC and 494315-158-R-J1-PDC; two malignant fibrous histiocytomas: 317291-083-R-J1-PDC and 596521-263-R-J1-PDC; two breast carcinomas: 171881-019-R-J1-PDC and 885512-296-R-J2-PDC; and one ovarian carcinoma: 6556581-035-R-J-PDC were obtained from the NCI PDMR, (https://pdmr.cancer.gov). The established cell lines HSSY-2 synovial sarcoma (RRID:CVCL 8719), SYO-1 synovial sarcoma (RRID:CVCL_7146), MPNST malignant peripheral neural sheath tumor were obtained from the Sloan Kettering Institute. The following established cell lines were purchased from the American Type Culture Collection (ATCC, Manassas, VA), Sor the received from the NCI repository:, PANC-1 pancreatic carcinoma (CRL-1469, RRID:CVCL_0480), OVCAR-5 ovarian carcinoma (RRID:CVCL_1628), OVCAR-8 ovarian carcinoma (RRID:CVCL_1629), , MCF-7 breast carcinoma (CRL-12584, RRID:CVCL_0031), MDA-MB-231 breast carcinoma (CRL-12532, RRID:CVCL_0062), NCI-H1876 small cell lung carcinoma (CRL-5902, RRID:CVCL_1503), NCI-H510A small cell lung carcinoma (HTB-184, RRID:CVCL_1565), NCI-H1417 (CRL-5869, RRID:CVCL_1469), and NCI-H196 small cell lung carcinoma (CRL-5823, RRID:CVCL_1509). Dr. Peter Houghton (Greehey Children's Cancer Research Institute, University of Texas Health Science Center, San Antonio, TX) provided Rh-18 rhabdomyosarcoma (RRID:CVCL_1659). Pooled donor human umbilical vein endothelial cells (HUVEC, Lonza, cat. CC-2519) and human mesenchymal stem cells (hMSC, Lonza, cat. PT-2501) were purchased from Lonza (Walkersville, MD).
Cell Culture. […]
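Note: spheroids exposed to agents for 7 days before readout.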
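Throughout, for viability, T/C: 100% = DMSO vehicle control viability.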

In the case of Cc1nc(N2CCC3(CC2)COC(C)C3N)c(CO)nc1Sc1ccnc(N)c1Cl (stereo not drawn), the IC50 is reported as > 3 µM, 76.9 nM [2022-09] and > 3 µM [2022-10].

For NC(=O)C(=Cn1cnc(-c2cc(C(F)(F)F)cc(C(F)(F)F)c2)n1)c1cncnc1, the IC50 was 5.37 nM, 2.36 nM [2022-09] and 30 nM [2022-10].

For CCN1C(C(=O)NC23CCC(C(=O)O)(CC2)CC3)C(c2cccc(Cl)c2F)C2(C(=O)Nc3cc(Cl)ccc32)C12CCCCC2 (stereo not drawn), the viability, T/C (compound alone 0.03 µM) was 77.4, 91, 100, 84, 93.2, 102, 93.1, 68.7, 74, 107, 69.6, 97.3, 91.2, 73.3% [2022-09] and 96.6% [2022-10], the viability, T/C (compound alone 0.0949 µM) was 108, 90, 64.7, 99.4, 97.8, 83.8, 91.4, 65.2, 112, 111, 102, 90.8, 84.8, 83.3% [2022-09] and 80.2% [2022-10] and the viability, T/C (compound alone 0.3 µM) was 105, 94.6, 118, 120, 106, 104, 107, 87.7, 111, 114, 124, 79.1, 96, 48.2% [2022-09] and 95.2% [2022-10]. The viability, T/C (compound alone 0.949 µM) was 106, 122, 127, 128, 134, 98, 119, 99.6, 97.9, 135 (2×), 117, 118, 101% [2022-09] and 107% [2022-10] and the viability, T/C (compound alone 3 µM) was 128 (2×), 152, 123, 120, 110 (2×), 130, 85.7, 149, 114, 108, 85.8, 105% [2022-09] and 109% [2022-10].

For Cc1c(S(C)(=O)=O)c(-c2cc(F)cc(N3CCN(c4ccc(NS(=O)(=O)c5ccc(NC(CCN6CCC(C(=O)OCCCP(=O)(O)O)CC6)CSc6ccccc6)c(S(=O)(=O)C(F)(F)F)c5)cc4)CC3)c2)c(-c2ccc(Cl)cc2)n1C(C)C (stereo not drawn), the viability, T/C (compound alone 0.1 µM) was 77.6 (2×), 114, 113, 54.8, 68.4, 79.2, 82.5, 78.1, 61.5, 82.9, 73.5, 77.1, 69.4%, the viability, T/C (compound alone 0.316 µM) was 63.9, 103, 64.8, 72.6, 75.1, 85.2, 99.6, 85.4, 89.1, 65.2, 89.9, 62.3, 66.2, 85.3% and the viability, T/C (compound alone 1 µM) was 59.2, 76.6, 106, 74, 54, 63.7, 61.7, 74.2, 86.2, 102, 99.3, 87.1, 113, 78%. The viability, T/C (compound alone 3.16 µM) was 99, 126, 96.7, 94.7, 87.7, 85.2, 77.1, 98, 78.6, 74.1, 102, 84.9, 66.9, 92.1%, the viability, T/C (compound alone 10 µM) was 167, 206, 213, 165, 168, 133, 68.3, 104, 176, 153, 158, 157, 166, 123% and the IC50 (run of 09/27/2022) was > 10 µM and < 100 nM.

With CNC(C)C(=O)NC1CN(S(=O)(=O)c2cccc(S(=O)(=O)N3CCC4CCC(C(=O)NC(c5ccccc5)c5ccccc5)N4C(=O)C(NC(=O)C(C)NC)C3)c2)CCC2CCC(C(=O)NC(c3ccccc3)c3ccccc3)N2C1=O (stereo not drawn) the viability, T/C (compound alone 0.01 µM) was 102%, 66.1% [2022-09] and 99.4, 76.1, 86.3, 95, 76.8, 110, 107 (2×), 106, 95.2, 92.7, 98.7, 90.3% [2022-10], the viability, T/C (compound alone 0.0316 µM) was 66.7%, 84.8% [2022-09] and 92.9, 92.5, 94.5, 100, 95, 106, 92.3, 111, 117, 92.1, 89.7, 88.4, 98.5% [2022-10] and the viability, T/C (compound alone 0.1 µM) was 76.6%, 94.8% [2022-09] and 92, 99.9, 77.3, 105, 101 (2×), 94.4, 100, 119, 106, 114, 87.8, 97.4% [2022-10]. The viability, T/C (compound alone 0.316 µM) was 92.1%, 73.5% [2022-09] and 90.8, 99.9, 83.6, 88.2, 94.4, 94.7, 109, 108, 89.2, 98.8, 89.3, 102, 95.2% [2022-10] and the viability, T/C (compound alone 1 µM) was 96.8%, 72.7% [2022-09] and 85.7, 94.4, 93.4 (2×), 99.2, 97.9, 94.5, 99.8, 117, 86, 112, 102% [2022-10].

Reference: PubChem BioAssay AID1963430 (Molecular Pharmacology Branch, DTP, NCI, 2024)
